Results on three molecules are retold here after article PMC3426524.

Amino acid sequences for entries named in this document (tags omitted).
UniProt Q13838: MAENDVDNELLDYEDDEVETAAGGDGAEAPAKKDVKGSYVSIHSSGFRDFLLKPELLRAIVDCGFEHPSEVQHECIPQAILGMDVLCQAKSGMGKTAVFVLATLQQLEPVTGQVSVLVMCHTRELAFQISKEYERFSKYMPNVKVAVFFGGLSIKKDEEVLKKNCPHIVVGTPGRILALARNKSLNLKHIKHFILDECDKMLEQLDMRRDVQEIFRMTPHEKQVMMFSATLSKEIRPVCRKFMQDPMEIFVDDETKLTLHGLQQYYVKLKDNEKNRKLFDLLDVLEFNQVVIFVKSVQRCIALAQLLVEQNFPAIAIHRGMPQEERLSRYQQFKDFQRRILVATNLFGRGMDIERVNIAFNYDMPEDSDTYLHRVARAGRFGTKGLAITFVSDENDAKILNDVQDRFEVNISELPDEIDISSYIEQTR
UniProt Q8NI27: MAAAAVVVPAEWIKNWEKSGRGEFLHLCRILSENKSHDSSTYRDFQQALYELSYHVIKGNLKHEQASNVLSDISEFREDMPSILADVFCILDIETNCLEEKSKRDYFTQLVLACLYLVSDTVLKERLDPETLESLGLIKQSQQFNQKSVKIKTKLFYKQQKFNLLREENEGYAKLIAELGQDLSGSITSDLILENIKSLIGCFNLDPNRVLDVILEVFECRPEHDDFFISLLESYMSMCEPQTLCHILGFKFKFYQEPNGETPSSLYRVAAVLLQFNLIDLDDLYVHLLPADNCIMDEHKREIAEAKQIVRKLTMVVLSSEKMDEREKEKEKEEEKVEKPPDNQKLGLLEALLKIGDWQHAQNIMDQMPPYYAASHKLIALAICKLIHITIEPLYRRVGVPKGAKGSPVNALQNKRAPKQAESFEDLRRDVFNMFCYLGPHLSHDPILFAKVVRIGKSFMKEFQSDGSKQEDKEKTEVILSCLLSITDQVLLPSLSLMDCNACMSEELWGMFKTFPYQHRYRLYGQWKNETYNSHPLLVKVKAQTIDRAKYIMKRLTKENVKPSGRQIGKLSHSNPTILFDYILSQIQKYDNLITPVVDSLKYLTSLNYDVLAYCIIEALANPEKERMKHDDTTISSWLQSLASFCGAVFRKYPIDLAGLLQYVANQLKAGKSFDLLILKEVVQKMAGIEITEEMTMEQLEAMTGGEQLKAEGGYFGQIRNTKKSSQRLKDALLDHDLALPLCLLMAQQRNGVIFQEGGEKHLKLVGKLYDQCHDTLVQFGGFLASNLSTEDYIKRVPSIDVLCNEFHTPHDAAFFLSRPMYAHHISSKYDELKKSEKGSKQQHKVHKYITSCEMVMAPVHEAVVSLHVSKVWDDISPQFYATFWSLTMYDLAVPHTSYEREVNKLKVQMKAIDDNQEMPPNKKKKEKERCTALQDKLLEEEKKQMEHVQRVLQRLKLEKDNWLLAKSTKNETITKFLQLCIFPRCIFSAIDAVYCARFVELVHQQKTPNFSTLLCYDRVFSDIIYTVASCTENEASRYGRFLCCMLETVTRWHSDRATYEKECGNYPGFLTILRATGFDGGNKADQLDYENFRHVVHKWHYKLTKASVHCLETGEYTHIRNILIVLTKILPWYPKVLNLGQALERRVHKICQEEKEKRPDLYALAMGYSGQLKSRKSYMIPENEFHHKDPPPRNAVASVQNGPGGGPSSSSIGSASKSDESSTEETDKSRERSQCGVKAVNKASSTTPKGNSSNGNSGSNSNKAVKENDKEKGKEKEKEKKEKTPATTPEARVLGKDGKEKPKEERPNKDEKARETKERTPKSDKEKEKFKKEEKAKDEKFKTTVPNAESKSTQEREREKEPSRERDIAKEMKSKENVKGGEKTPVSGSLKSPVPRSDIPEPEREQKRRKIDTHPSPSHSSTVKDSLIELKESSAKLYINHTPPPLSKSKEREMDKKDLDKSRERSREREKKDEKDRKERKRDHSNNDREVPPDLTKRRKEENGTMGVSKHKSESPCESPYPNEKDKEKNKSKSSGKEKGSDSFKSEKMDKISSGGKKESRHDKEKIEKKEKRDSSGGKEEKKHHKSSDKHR
UniProt O75152: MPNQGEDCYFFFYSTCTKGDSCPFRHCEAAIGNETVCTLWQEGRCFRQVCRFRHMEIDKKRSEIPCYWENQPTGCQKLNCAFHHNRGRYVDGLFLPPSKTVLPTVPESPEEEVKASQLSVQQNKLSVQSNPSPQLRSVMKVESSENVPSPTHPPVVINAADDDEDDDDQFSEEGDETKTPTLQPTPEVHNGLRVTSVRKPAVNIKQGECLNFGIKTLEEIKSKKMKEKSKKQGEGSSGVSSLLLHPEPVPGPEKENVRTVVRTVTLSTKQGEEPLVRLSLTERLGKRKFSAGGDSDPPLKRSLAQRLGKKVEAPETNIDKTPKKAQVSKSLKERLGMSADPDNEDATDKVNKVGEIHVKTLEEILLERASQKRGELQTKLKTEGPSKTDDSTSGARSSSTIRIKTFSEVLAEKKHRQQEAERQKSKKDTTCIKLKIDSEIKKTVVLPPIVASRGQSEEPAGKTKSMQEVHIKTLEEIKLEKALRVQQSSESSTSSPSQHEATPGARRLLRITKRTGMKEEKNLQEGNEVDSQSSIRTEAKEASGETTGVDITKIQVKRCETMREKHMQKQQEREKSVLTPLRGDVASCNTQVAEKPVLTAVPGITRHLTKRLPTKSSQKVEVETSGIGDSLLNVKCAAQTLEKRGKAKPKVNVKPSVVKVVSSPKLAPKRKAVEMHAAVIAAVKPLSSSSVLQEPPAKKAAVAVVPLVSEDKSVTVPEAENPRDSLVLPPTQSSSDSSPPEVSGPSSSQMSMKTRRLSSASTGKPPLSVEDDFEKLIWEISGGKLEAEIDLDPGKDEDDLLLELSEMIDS

These are yes or no findings as the source states them, for the method shown. Binding seen in cells or lysates may run through a third protein. Some entries that bind do so weakly or less than the wild type.

The target of experiment [1] is UAP56 (human (endogenous in HeLa)) (UniProt Q13838). Nature of the experiment: co-IP; with ATP: antibodies cross-linked to protein A Sepharose; HeLa nuclear extract with 500 µM ATP, 3.2 mM MgCl2, 20 mM creatine phosphate and 50 ng/µl RNase A, 20 min at 30°C; IP overnight at 4°C in 1X PBS, 0.1% Triton; Western.
Experiment [2] deals with THOC2 (human (endogenous in HeLa)) (UniProt Q8NI27). The experiment is described as above.
Experiment [3] addresses UAP56 (human (endogenous in HeLa)) (UniProt Q13838). Nature of the experiment: co-IP; without ATP: as the +ATP IP, but ATP, MgCl2 and creatine phosphate omitted and substituted with water; RNase-treated HeLa nuclear extract; Western.
The target of experiment [4] is THOC2 (human (endogenous in HeLa)) (UniProt Q8NI27). The description is as above.
Experiment [5] has as its target UAP56 (human (endogenous in HeLa)) (UniProt Q13838). Nature of the experiment: co-IP; with ATP: antibodies cross-linked to protein A Sepharose; HeLa nuclear extract with 500 µM ATP, 3.2 mM MgCl2, 20 mM creatine phosphate and 50 ng/µl RNase A, 20 min at 30°C; IP overnight at 4°C in 1X PBS, 0.1% Triton; Western. This is another data set of the same source.
In experiment [6] the target is THOC2 (human (endogenous in HeLa)) (UniProt Q8NI27). The description is as above. This is another data set of the same source.

On to ZC11A (from UniProt O75152 1-810), for which the binding entry in experiment [1] was “binds”; in experiment [2] it was “binds”; in experiment [3] it was “no binding (condition: without ATP)”; in experiment [4] it was “no binding (condition: without ATP)”.

B1: PDIP3α (protein, UniProt Q9BY77 1-421)
chain: MADISLDELIRKRGAAAKGRLNARPGVGGVRSRVGIQQGLLSQSTRTATFQQRFDARQKIGLSDARLKLGVKDAREKLLQKDARFRIKGKVQDAREMLNSRKQQTTVPQKPRQVADAREKISLKRSSPAAFINPPIGTVTPALKLTKTIQVPQQKAMAPLHPHPAGMRINVVNNHQAKQNLYDLDEDDDGIASVPTKQMKFAASGGFLHHMAGLSSSKLSMSKALPLTKVVQNDAYTAPALPSSIRTKALTNMSRTLVNKEEPPKELPAAEPVLSPLEGTKMTVNNLHPRVTEEDIVELFCVCGALKRARLVHPGVAEVVFVKKDDAITAYKKYNNRCLDGQPMKCNLHMNGNVITSDQPILLRLSDSPSMKKESELPRRVNSASSSNPPAEVDPDTILKALFKSSGASVTTQPTEFKIKL
For the molecule B1, the binding result in experiment [5] and in experiment [6] was “binds” in each case.

B2: PDIP3β (protein, UniProt Q9BY77-2 1-392)
chain: MADISLDELIRKRGAAAKGRLNARPGVGGVRSRVGIQQGLLSQSTRTATFQQRFDARQKIGLSDARLKLGVKDAREKLLQKDARFRIKGKVQDAREMLNSRKQQTTVPQKPRQVADAREKISLKRSSPAAFINPPIGTVTPALKLTKTIQNLYDLDEDDDGIASVPTKQMKFAASGGFLHHMAGLSSSKLSMSKALPLTKVVQNDAYTAPALPSSIRTKALTNMSRTLVNKEEPPKELPAAEPVLSPLEGTKMTVNNLHPRVTEEDIVELFCVCGALKRARLVHPGVAEVVFVKKDDAITAYKKYNNRCLDGQPMKCNLHMNGNVITSDQPILLRLSDSPSMKKESELPRRVNSASSSNPPAEVDPDTILKALFKSSGASVTTQPTEFKIKL
On to B2, for which the binding entry in experiment [5] and in experiment [6] was “binds” throughout.
